Molecular target: T1, Siglec-10Fc (human, UniProt Q96LC7 17-546)
T1 construct: Used as the analyte in Biacore at different concentrations; also called human Siglec 10; not shown: Fc part of Siglec-10Fc
T1 sequence (looked up): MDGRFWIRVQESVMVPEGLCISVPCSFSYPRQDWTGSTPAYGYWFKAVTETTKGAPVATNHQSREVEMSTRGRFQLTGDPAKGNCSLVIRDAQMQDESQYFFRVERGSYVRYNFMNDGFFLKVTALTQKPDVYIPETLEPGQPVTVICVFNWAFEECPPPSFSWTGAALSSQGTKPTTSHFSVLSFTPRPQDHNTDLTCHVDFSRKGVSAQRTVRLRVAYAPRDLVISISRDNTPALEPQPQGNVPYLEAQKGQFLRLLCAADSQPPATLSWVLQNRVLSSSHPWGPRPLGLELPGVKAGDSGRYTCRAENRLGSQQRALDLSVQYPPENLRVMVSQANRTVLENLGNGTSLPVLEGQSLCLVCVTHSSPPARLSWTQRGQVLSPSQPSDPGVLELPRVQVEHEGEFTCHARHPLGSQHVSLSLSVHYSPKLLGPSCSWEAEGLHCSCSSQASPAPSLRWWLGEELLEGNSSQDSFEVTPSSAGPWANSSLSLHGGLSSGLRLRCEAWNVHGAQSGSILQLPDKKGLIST
Assay: Biacore (SPR): CD24Fc immobilized on the chip, Siglec-10Fc injected at different concentrations (0 to about 9.3×10^-7 M); response in RU plotted against Siglec 10 concentration with a fitted saturation curve

Kd: 162 nM
Binder: SETTTGTSSNSSQSTSNSGLAPNPTNATT[gap - human IgG1 Fc] (Fc fusion, 6'; also called CD24Ig; CD24IgG1) [CD24Fc fusion protein (processed, secreted form)]
